Source: PMC2686680, “Chibby forms a homodimer through a heptad repeat of leucine residues in its C-terminal coiled-coil motif” (BMC Molecular Biology, 2009)
Results are given in words; binding and its absence hold for the method and conditions named. For part of these data: Binding seen in cells or lysates may run through a third protein. Some results given as binding are weak or reduced against the parent protein; the word gives no strength. Blank lines part the entries; values can stand above or below the molecule they belong to.

Amino acid sequences for entries named in this document (tags omitted).
UniProt P01100: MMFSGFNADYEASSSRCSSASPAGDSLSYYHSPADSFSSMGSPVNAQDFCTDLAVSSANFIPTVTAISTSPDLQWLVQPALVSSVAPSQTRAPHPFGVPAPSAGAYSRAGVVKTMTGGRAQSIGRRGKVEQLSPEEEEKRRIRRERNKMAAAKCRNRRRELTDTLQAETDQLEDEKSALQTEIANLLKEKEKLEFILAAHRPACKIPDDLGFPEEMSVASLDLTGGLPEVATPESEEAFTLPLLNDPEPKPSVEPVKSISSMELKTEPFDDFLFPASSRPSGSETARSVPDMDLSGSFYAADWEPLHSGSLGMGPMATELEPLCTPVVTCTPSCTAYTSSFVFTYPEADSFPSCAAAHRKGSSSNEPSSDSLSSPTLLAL
UniProt P05412: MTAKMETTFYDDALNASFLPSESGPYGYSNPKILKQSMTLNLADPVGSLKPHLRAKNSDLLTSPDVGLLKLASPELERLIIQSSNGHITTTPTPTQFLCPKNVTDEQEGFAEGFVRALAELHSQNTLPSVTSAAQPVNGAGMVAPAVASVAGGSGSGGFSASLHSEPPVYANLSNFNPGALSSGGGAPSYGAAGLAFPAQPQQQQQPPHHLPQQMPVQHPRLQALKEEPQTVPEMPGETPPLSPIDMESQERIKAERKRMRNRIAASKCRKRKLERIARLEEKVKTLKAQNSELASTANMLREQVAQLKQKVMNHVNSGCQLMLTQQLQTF
UniProt O00629: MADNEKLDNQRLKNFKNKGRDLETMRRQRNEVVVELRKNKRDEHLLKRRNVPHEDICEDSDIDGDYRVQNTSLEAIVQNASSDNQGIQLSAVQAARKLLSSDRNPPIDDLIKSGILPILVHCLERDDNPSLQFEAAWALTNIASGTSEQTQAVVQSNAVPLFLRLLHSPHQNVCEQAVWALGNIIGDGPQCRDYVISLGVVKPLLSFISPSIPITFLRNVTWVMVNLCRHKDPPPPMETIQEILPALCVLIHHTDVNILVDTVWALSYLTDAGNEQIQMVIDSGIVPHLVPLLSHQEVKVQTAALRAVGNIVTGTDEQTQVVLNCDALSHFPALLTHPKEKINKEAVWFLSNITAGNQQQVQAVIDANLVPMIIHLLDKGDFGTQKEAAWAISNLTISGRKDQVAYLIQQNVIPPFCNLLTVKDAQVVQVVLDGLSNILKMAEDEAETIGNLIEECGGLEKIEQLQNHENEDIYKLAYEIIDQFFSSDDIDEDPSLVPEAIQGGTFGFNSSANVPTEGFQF

Tests used:
[1] = biological target: Chibby (Cby) wild type, epitope-tagged (Flag-CbyWT, Myc-Cby, HA-CbyWT) (human) (UniProt Q9Y3M2); experiment: co-IP; HEK293T co-transfected with two differently tagged Cby constructs; lysis buffer 20 mM Tris-HCl pH 8.0, 135 mM NaCl, 1.5 mM MgCl2, 1 mM EGTA, 1% Triton X-100, 10% glycerol; IP with anti-Myc (Fig. 1A) or anti-HA (Fig. 4B), blot with anti-Flag
[2] = biological target: Cby L84A/L98A fused to RN or RC of hRluc (human) (UniProt Q9Y3M2); experiment: split reporter; split synthetic Renilla luciferase (hRluc) protein-fragment-assisted complementation; RN and RC fusion plasmids (400 ng each) in HEK293T, Rluc activity measured 24 hr post-transfection (Dual Luciferase Reporter Assay System), normalised to firefly luciferase
[3] = biological target: Cby L84A fused to RN or RC of hRluc (human) (UniProt Q9Y3M2); experiment: as above
[4] = biological target: Cby L98A fused to RN or RC of hRluc (human) (UniProt Q9Y3M2); experiment: as above
[5] = biological target: His-CbyL77A/L91A (human) (UniProt Q9Y3M2); experiment: cross-linking; purified His-Cby, 0.2% glutaraldehyde at 37°C for 5 or 20 min in 20 mM Hepes pH 7.9, 100 mM NaCl, 1 mM EDTA, 0.1% NP-40, 10% glycerol; SDS-PAGE, anti-Cby blot; both purified
[6] = biological target: Cby L77A fused to RN or RC of hRluc (human) (UniProt Q9Y3M2); experiment: split reporter; split synthetic Renilla luciferase (hRluc) protein-fragment-assisted complementation; RN and RC fusion plasmids (400 ng each) in HEK293T, Rluc activity measured 24 hr post-transfection (Dual Luciferase Reporter Assay System), normalised to firefly luciferase
[7] = biological target: Cby4A fused to RN or RC of hRluc (human) (UniProt Q9Y3M2); experiment: as above
[8] = biological target: Chibby (Cby) wild type, epitope-tagged (Flag-CbyWT, Myc-Cby, HA-CbyWT) (human) (UniProt Q9Y3M2); experiment: co-IP; HEK293T co-transfected with Flag-Cby and HA-Cby; IP with anti-HA; immunoprecipitates washed three times with 0.135, 0.5, 1.0, 1.5 or 2.0 M NaCl, or 0.5, 1.0, 1.5 or 2.0 M urea (with 0.135 M NaCl); blot with anti-Flag
[9] = biological target: Fos fused to the C-terminal portion of hRluc (UniProt P01100); experiment: split reporter; split hRluc complementation in live HEK293T cells in 96-well plates; cell-permeable ViviRen substrate added to the medium 24 hr post-transfection
[10] = biological target: Cby wild type fused to the N-terminal (RN) or C-terminal (RC) portion of synthetic Renilla luciferase (hRluc) (human) (UniProt Q9Y3M2); experiment: as above
[11] = biological target: Cby wild type fused to the N-terminal (RN) or C-terminal (RC) portion of synthetic Renilla luciferase (hRluc) (human) (UniProt Q9Y3M2); experiment: split reporter; split synthetic Renilla luciferase (hRluc) protein-fragment-assisted complementation; RN and RC fusion plasmids (400 ng each) in HEK293T, Rluc activity measured 24 hr post-transfection (Dual Luciferase Reporter Assay System), normalised to firefly luciferase
[12] = biological target: Cby L77A/L84A fused to RN or RC of hRluc (human) (UniProt Q9Y3M2); experiment: as above
[13] = biological target: His-Cby4A (human) (UniProt Q9Y3M2); experiment: cross-linking; purified His-Cby, 0.2% glutaraldehyde at 37°C for 5 or 20 min in 20 mM Hepes pH 7.9, 100 mM NaCl, 1 mM EDTA, 0.1% NP-40, 10% glycerol; SDS-PAGE, anti-Cby blot; both purified
[14] = biological target: Cby L91A fused to RN or RC of hRluc (human) (UniProt Q9Y3M2); experiment: split reporter; split synthetic Renilla luciferase (hRluc) protein-fragment-assisted complementation; RN and RC fusion plasmids (400 ng each) in HEK293T, Rluc activity measured 24 hr post-transfection (Dual Luciferase Reporter Assay System), normalised to firefly luciferase
[15] = biological target: Cby L77A/L98A fused to RN or RC of hRluc (human) (UniProt Q9Y3M2); experiment: as above
[16] = biological target: Cby L77A/L91A fused to RN or RC of hRluc (human) (UniProt Q9Y3M2); experiment: as above
[17] = biological target: Cby L91A/L98A fused to RN or RC of hRluc (human) (UniProt Q9Y3M2); experiment: as above
[18] = biological target: Cby L84A/L91A fused to RN or RC of hRluc (human) (UniProt Q9Y3M2); experiment: as above
[19] = biological target: MBP-Cby L77A (human) (UniProt Q9Y3M2); experiment: pull-down; in vitro: bacterially produced MBP-Cby proteins incubated with His-βcatR10-C or GST-importin-α3, pulled down with amylose resin, Western blot with anti-β-catenin or anti-GST; both purified
[20] = biological target: MBP-Cby L91A (human) (UniProt Q9Y3M2); experiment: as above
[21] = biological target: MBP-CbyWT (human) (UniProt Q9Y3M2); experiment: as above
[22] = biological target: His-tagged Cby wild type (human) (UniProt Q9Y3M2); experiment: cross-linking; purified His-Cby, dimethyl suberimidate (DMS) 2 mg/ml at room temperature for 30 min in the dialysis buffer; SDS-PAGE, anti-Cby blot; both purified
[23] = biological target: His-tagged Cby wild type (human) (UniProt Q9Y3M2); experiment: SEC; as a5 but buffer with 0.5 M NaCl (data not shown); both purified

- binding [1]: no binding
Molecule: Flag-Cby4A (from UniProt Q9Y3M2 1-126)

- binding [1]: binds
Molecule: Flag-CbyL91A (from UniProt Q9Y3M2 1-126)

- binding [2]: no binding
Molecule: Cby L84A/L98A fused to RN or RC of hRluc (from UniProt Q9Y3M2 1-126)

- binding [1]: no binding
Molecule: Flag-CbyL77A/L91A (from UniProt Q9Y3M2 1-126)

- binding [3]: binds
Molecule: Cby L84A fused to RN or RC of hRluc (from UniProt Q9Y3M2 1-126)

- binding [1]: no binding
Molecule: Flag-Cby L84A/L91A/L98A (from UniProt Q9Y3M2 1-126)

- binding [4]: binds
Molecule: Cby L98A fused to RN or RC of hRluc (from UniProt Q9Y3M2 1-126)

- binding [5]: no binding
Molecule: His-CbyL77A/L91A (from UniProt Q9Y3M2 1-126)

- binding [6]: binds
Molecule: Cby L77A fused to RN or RC of hRluc (from UniProt Q9Y3M2 1-126)

- binding [1]: no binding
Molecule: Flag-Cby L77A/L84A/L98A (from UniProt Q9Y3M2 1-126)

- binding [7]: no binding
Molecule: Cby4A fused to RN or RC of hRluc (from UniProt Q9Y3M2 1-126)

- binding [1]: binds
Molecule: Flag-Cby L98A (from UniProt Q9Y3M2 1-126)

- binding [1]: binds
Molecule: Flag-CbyL84A (from UniProt Q9Y3M2 1-126)

- binding [1]: no binding
Molecule: Flag-Cby L91A/L98A (from UniProt Q9Y3M2 1-126)

- binding [8]: binds
- binding [1]: binds
Molecule: Chibby (Cby) wild type, epitope-tagged (Flag-CbyWT, Myc-Cby, HA-CbyWT) (from UniProt Q9Y3M2 1-126)

- binding [9]: no binding
- binding [10]: binds
- binding [11]: binds
Molecule: Cby wild type fused to the N-terminal (RN) or C-terminal (RC) portion of synthetic Renilla luciferase (hRluc) (from UniProt Q9Y3M2 1-126)

- binding [12]: no binding
Molecule: Cby L77A/L84A fused to RN or RC of hRluc (from UniProt Q9Y3M2 1-126)

- binding [13]: no binding
Molecule: His-Cby4A (from UniProt Q9Y3M2 1-126)

- binding [1]: no binding
Molecule: Flag-Cby L77A/L84A/L91A (from UniProt Q9Y3M2 1-126)

- binding [1]: binds
Molecule: Flag-CbyL77A (from UniProt Q9Y3M2 1-126)

- binding [14]: binds
Molecule: Cby L91A fused to RN or RC of hRluc (from UniProt Q9Y3M2 1-126)

- binding [15]: no binding
Molecule: Cby L77A/L98A fused to RN or RC of hRluc (from UniProt Q9Y3M2 1-126)

- binding [10]: no binding
Molecule: Jun fused to the N-terminal portion of hRluc (from UniProt P05412 1-331)

- binding [1]: no binding
Molecule: Flag-Cby L84A/L98A (from UniProt Q9Y3M2 1-126)

- binding [16]: no binding
Molecule: Cby L77A/L91A fused to RN or RC of hRluc (from UniProt Q9Y3M2 1-126)

- binding [1]: no binding
Molecule: Flag-Cby L77A/L84A (from UniProt Q9Y3M2 1-126)

- binding [1]: no binding
Molecule: Flag-Cby L77A/L98A (from UniProt Q9Y3M2 1-126)

- binding [1]: no binding
Molecule: Flag-Cby L84A/L91A (from UniProt Q9Y3M2 1-126)

- binding [1]: no binding
Molecule: Flag-Cby L77A/L91A/L98A (from UniProt Q9Y3M2 1-126)

- binding [17]: no binding
Molecule: Cby L91A/L98A fused to RN or RC of hRluc (from UniProt Q9Y3M2 1-126)

- binding [18]: no binding
Molecule: Cby L84A/L91A fused to RN or RC of hRluc (from UniProt Q9Y3M2 1-126)

- binding [19]: binds
- binding [20]: binds
- binding [21]: binds
Molecule: GST-importin-α3 (from UniProt O00629 1-521)

- binding [22]: binds
- binding [23]: binds
B1: His-tagged Cby wild type (natural protein, human, UniProt Q9Y3M2 1-126, looked up)
chain: MPFFGNTFSPKKTPPRKSASLSNLHSLDRSTREVELGLEYGSPTMNLAGQSLKFENGQWIAETGVSGGVDRREVQRLRRRNQQLEEENNLLRLKVDILLDMLSESTAESHLMEKELDELRISRKRK
notes: Chibby (Cby), human, 126 amino acids; Cby cDNA in pcDNA4/HisMax A; the vector pcDNA4/HisMax A probably adds further N-terminal residues besides the His tag (surmise); also called His-Cby; His-CbyWT; source: transiently transfected for cross-linking), purified (nickel beads / Ni-NTA)
